The structures appear in SMILES notation. The list shows a part of the results.

Test [1] has as its system HSkMC (human skeletal muscle cells). Briefly: cytotoxicity call (relative viability < 0.9). As to conditions: 10 µM.
Test [2] deals with HepG2. Description: cytotoxicity call (relative viability < 0.9). As to conditions: 10 µM.
The subject of test [3] is S. aureus RN4220. Description: growth inhibition call (relative growth <= 0.2). As to conditions: 50 µM.

Regarding `N[C@@H](COP(=O)(O)O)C(=O)O`, the cytotoxicity call in test [1] and in test [2] was “inactive” each time. Besides, the growth inhibition call in test [3] is “inactive”.
In the case of `Cc1cc(OC(=O)c2c(C)cc(O)cc2O)cc(O)c1C(=O)O`, the cytotoxicity call in test [1] and in test [2] was “inactive” throughout. The growth inhibition call in test [3] is “inactive”.
Consider `C[C@H]1CN([C@@H](C)CO)C(=O)c2cccc(NC(=O)c3cnccn3)c2O[C@@H]1CN(C)Cc1ccncc1`, for which the cytotoxicity call in test [1] and in test [2] was “inactive” in each case. Besides, the growth inhibition call in test [3] is “inactive”.
In the case of `C[C@@H]1CN([C@@H](C)CO)C(=O)Cc2cc(NC(=O)Nc3ccccc3)ccc2O[C@H]1CN(C)Cc1ccc(-c2ccccc2)cc1`, the cytotoxicity call in test [1] was “inactive”. For the same compound, the cytotoxicity call in test [2] was “active”. In addition, in test [3], the growth inhibition call is “inactive”.
Regarding `COc1ccc(NC(=O)Nc2ccc3c(c2)CC(=O)N([C@H](C)CO)C[C@H](C)[C@H](CN(C)Cc2ccc(C(=O)Nc4ccccc4N)cc2)O3)cc1`, the cytotoxicity call in test [1] and in test [2] was “inactive” throughout. The growth inhibition call in test [3] is “inactive”.
For `C[C@@H]1CCCCO[C@@H](CN(C)C(=O)NC2CCCCC2)[C@@H](C)CN([C@H](C)CO)C(=O)c2cc(NS(=O)(=O)c3ccc(F)cc3)ccc2O1`, the cytotoxicity call in test [1] and in test [2] was “inactive” in each case. The growth inhibition call in test [3] was “inactive”.
Regarding `COCC(=O)OCn1nnc2ccccc2c1=O`, the cytotoxicity call in test [1] and in test [2] was “inactive” throughout. In addition, in test [3], the growth inhibition call was “inactive”.
`COc1ccc(S(=O)(=O)Nc2cccc3c2O[C@@H](CN(C)Cc2ccc(Oc4ccccc4)cc2)[C@H](C)CN([C@@H](C)CO)C3=O)cc1`: the cytotoxicity call in test [1] and in test [2] was “inactive” in each case. Further, in test [3], the growth inhibition call was “inactive”.
On to `CCS(=O)(=O)N1CC[C@]2(CC1)CN([C@@H](CO)c1[nH]c3cc(ccc3c12)OC)S(=O)(=O)c1cn(cn1)C`, for which the cytotoxicity call in test [1] and in test [2] was “inactive” in each case. Also, in test [3], the growth inhibition call was “inactive”.
Turning to `Cc1noc(C)c1S(=O)(=O)N(C)C[C@@H]1OCCCC[C@H](C)Oc2ccc(NS(=O)(=O)c3cn(C)cn3)cc2C(=O)N([C@@H](C)CO)C[C@H]1C`, the cytotoxicity call in test [1] and in test [2] was “inactive” throughout. Besides, the growth inhibition call in test [3] is “inactive”.
